Assay results reported in the supplement of paper PMC11880418.
Structures can show the parent of a compound that is named as a salt. This is one part of the list. The data scatter; read single values as rough. Residues, ends and D or L forms follow the SMILES beside them.

tested on: T84; assay: ALDHbr (CSC) cell proportion score relative to DMSO vehicle (ratio to DMSO); breast (SUM159) / gastric (MKN45) / pancreatic (PANC1) / colon cancer lines; ALDHbr cells have high ALDH activity and are rich in cancer stem cells (CSC); higher = more CSC (ALDHbr) cells remaining; settings: 10 µM; 72 h
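Also: High-content imaging of ALDEFLUOR-stained cells with Hoechst-labelled nuclei in 384-well plates, triplicate wells, scored as Z-score against 0.1% DMSO vehicle, negative meaning fewer ALDHbr cells.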

Row | Compound | ALDHbr
1 | Cc1cccc(C)c1OCC(C)N (stereo not drawn) [Mexiletine hydrochloride] | 3.62
2 | CCC(=O)O[C@]1(C(=O)SCF)[C@H](C)C[C@H]2[C@@H]3C[C@H](F)C4=CC(=O)C=C[C@]4(C)[C@@]3(F)[C@@H](O)C[C@@]21C [Fluticasone propionate] | 0.968
3 | CC(C)(C)NC(=O)[C@@H]1CN(Cc2cccnc2)CCN1C[C@@H](O)C[C@@H](Cc1ccccc1)C(=O)N[C@H]1c2ccccc2C[C@H]1O [Indinavir sulfate] | 0.825
4 | COc1ccc(C(=O)CC(=O)c2ccc(C(C)(C)C)cc2)cc1 [Avobenzone] | 0.873
5 | CC(C)C(=O)Nc1ccc([N+](=O)[O-])c(C(F)(F)F)c1 [Flutamide] | 0.895
6 | CN1CCCN=C1/C=C/c1cccs1 [Pyrantel tartrate] | 0.838
7 | CCN(CC)CCOC(=O)C1(C2CCCCC2)CCCCC1 [Dicyclomine hydrochloride] | 1.13
8 | COc1ncnc(NS(=O)(=O)c2ccc(N)cc2)c1OC [Sulfadoxine] | 0.924
9 | CC(C)(CO)C(O)C(=O)NCCCO (stereo not drawn) [Panthenol (D)] | 0.935
10 | CC1Cc2ccccc2N1NC(=O)c1ccc(Cl)c(S(N)(=O)=O)c1 (stereo not drawn) [Indapamide] | 1.1
11 | CC(=O)N[C@@H](CC(=O)O)C(=O)N[C@@H](CCC(=O)O)C(=O)O [Spaglumic acid] (Ac-Asp-Glu-OH) | 0.877
12 | COc1ccc(-c2cc(=S)ss2)cc1 [Anethole-trithione] | 0.648
13 | CC(=O)O[C@]1(C(C)=O)CC[C@H]2[C@@H]3C=C(Cl)C4=CC(=O)[C@@H]5C[C@@H]5[C@]4(C)[C@H]3CC[C@@]21C [Cyproterone acetate] | 0.984
